Source: publication PMC10636204
Results are given in words; binding and its absence hold for the method and conditions named. For some assays here: In cells and extracts the contact can be indirect. Some entries that bind do so weakly or less than the wild type. Sequences can lack the tags named with a protein.

What was measured:
[1] = molecular target: T1, TMEM63B with GFP tag and TMEM63B with FLAG tag co-expressed (two differently tagged copies of mouse TMEM63B) (mouse), Q3TWI9; assay: co-IP; TMEM63B, same protocol as for TMEM63C (GFP resin and Flag resin, DDM/CHS extract of HEK293S cells, western blot), lysis buffer pH 8.0; no cross-linking; settings: remark: other sources report otherwise
T1 chain: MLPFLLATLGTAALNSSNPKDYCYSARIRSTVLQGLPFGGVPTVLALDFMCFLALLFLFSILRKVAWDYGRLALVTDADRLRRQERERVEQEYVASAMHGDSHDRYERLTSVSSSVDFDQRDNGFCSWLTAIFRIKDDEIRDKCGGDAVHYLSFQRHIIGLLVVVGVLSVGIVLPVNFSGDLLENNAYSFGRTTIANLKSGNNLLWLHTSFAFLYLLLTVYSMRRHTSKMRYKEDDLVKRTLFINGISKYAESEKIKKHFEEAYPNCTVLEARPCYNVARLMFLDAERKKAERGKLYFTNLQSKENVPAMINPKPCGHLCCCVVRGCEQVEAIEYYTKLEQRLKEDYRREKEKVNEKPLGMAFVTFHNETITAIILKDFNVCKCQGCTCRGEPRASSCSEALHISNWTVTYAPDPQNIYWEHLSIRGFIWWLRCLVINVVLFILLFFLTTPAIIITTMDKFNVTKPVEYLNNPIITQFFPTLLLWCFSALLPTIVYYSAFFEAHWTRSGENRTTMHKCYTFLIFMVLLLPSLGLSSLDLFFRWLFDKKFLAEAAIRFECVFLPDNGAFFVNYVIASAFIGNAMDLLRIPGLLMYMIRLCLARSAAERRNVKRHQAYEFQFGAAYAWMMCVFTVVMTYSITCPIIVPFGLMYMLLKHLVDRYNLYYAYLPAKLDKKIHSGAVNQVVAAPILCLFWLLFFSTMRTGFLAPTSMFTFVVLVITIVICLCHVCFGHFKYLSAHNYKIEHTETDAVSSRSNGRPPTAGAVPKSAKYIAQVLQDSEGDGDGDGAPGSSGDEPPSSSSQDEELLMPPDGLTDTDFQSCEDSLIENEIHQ

[2] = molecular target: mouse TMEM63C (purified, GFP tag removed) (mouse) (UniProt Q8CBX0); assay: cryo-EM structure; purified TMEM63C in LMNG/CHS, 50 mM Tris pH 7.0, 150 mM NaCl, 1 mg/ml; single-particle cryo-EM, 2D averages and 3.56 Å map; both purified
[3] = molecular target: TMEM63C-GFP and TMEM63C-FLAG co-expressed (two differently tagged copies of mouse TMEM63C) (mouse) (UniProt Q8CBX0); assay: co-IP; TMEM63C-GFP and TMEM63C-FLAG co-expressed in HEK293S; extracted with 1% DDM, 0.1% CHS, 20 mM Hepes pH 7.0, 150 mM NaCl, 10% glycerol; GFP resin and Flag resin, 4 °C overnight; western blot with anti-GFP and anti-Flag; no cross-linking
[4] = molecular target: TMEM63C-GFP and TMEM63C-FLAG co-expressed (two differently tagged copies of mouse TMEM63C) (mouse) (UniProt Q8CBX0); assay: co-IP; as the co-IP without cross-linking, but cell membrane purified and cross-linked with glutaraldehyde before extraction with DDM; GFP and FLAG beads, western blot
[5] = molecular target: TMEM63C-FLAG (expressed alone, cross-linked in the membrane) (mouse) (UniProt Q8CBX0); assay: cross-linking; TMEM63C-FLAG in isolated HEK293S membranes, not extracted; 0.02% glutaraldehyde, 4 °C, 30 min, stopped with 50 mM Tris 7.0; SDS-PAGE and western blot

B1: TMEM63B with GFP tag and TMEM63B with FLAG tag co-expressed (two differently tagged copies of mouse TMEM63B), Q3TWI9 1-832 (protein)
chain: MLPFLLATLGTAALNSSNPKDYCYSARIRSTVLQGLPFGGVPTVLALDFMCFLALLFLFSILRKVAWDYGRLALVTDADRLRRQERERVEQEYVASAMHGDSHDRYERLTSVSSSVDFDQRDNGFCSWLTAIFRIKDDEIRDKCGGDAVHYLSFQRHIIGLLVVVGVLSVGIVLPVNFSGDLLENNAYSFGRTTIANLKSGNNLLWLHTSFAFLYLLLTVYSMRRHTSKMRYKEDDLVKRTLFINGISKYAESEKIKKHFEEAYPNCTVLEARPCYNVARLMFLDAERKKAERGKLYFTNLQSKENVPAMINPKPCGHLCCCVVRGCEQVEAIEYYTKLEQRLKEDYRREKEKVNEKPLGMAFVTFHNETITAIILKDFNVCKCQGCTCRGEPRASSCSEALHISNWTVTYAPDPQNIYWEHLSIRGFIWWLRCLVINVVLFILLFFLTTPAIIITTMDKFNVTKPVEYLNNPIITQFFPTLLLWCFSALLPTIVYYSAFFEAHWTRSGENRTTMHKCYTFLIFMVLLLPSLGLSSLDLFFRWLFDKKFLAEAAIRFECVFLPDNGAFFVNYVIASAFIGNAMDLLRIPGLLMYMIRLCLARSAAERRNVKRHQAYEFQFGAAYAWMMCVFTVVMTYSITCPIIVPFGLMYMLLKHLVDRYNLYYAYLPAKLDKKIHSGAVNQVVAAPILCLFWLLFFSTMRTGFLAPTSMFTFVVLVITIVICLCHVCFGHFKYLSAHNYKIEHTETDAVSSRSNGRPPTAGAVPKSAKYIAQVLQDSEGDGDGDGAPGSSGDEPPSSSSQDEELLMPPDGLTDTDFQSCEDSLIENEIHQ
binding [1]: binds

B2: mouse TMEM63C (purified, GFP tag removed) (protein, UniProt Q8CBX0 1-802)
chain: MSAFPDSMDQKFHNMTVNECFQSRSTVLQGQPFGGIPTVLVLNIILWVFVVLLYSFLRKAAWDYGRLALLIHNDSLTSLIYGEQSEKSSPSEVSLEAERRDRGFSSWFFNSLTMRDRDLINKCGDDARIYITFQYHLIIFVLILCIPSLGIILPVNYIGTVLDWNSHFGRTTIVNVSTESKFLWLHSLFAFLYFLINLAFMGHHCLGFVPKKSLHFTRTLMITYVPTEIQDPEIISKHFHEAYPGCVVTRVHFCYDVRNLIDLDDQRRHAMRGRLYYTAKAKKTGKVMIKTHPCSRLCFCKCWTCFKEVDAEQYYSELEEQLTDEFNAELNRVQLKRLDLIFVTFQDARTVRRIYDDYKYIHCGRHPKQSSVTTIVKNYHWRVAHAPHPKDIIWKHLSIRRFSWWTRFIAINTFLFFLFFFLTTPAIIINTIDIYNVTRPIEKLQSPIVTQFFPSVLLWAFTVTMPLLVYLSAFLEAHWTRSSQNLIIVHKCYIFLVFMVVILPSMGLTSLHVFLRWLFDIYYLEHATIRFQCVFLPDNGAFFINYVITAALLGTGMELMRLGSLCTYCTRLFLSKSEPERVHIRKNQATDFQFGREYAWMLNVFSVVMAYSITCPIIVPFGLLYLCMKHITDRYNMYYSYAPTKLNAQIHMAAVYQAIFAPLLGLFWMLFFSILRVGSLHSITLFSMSSLIISVVIAFSGVFLGKLRIAQRYEQPEEETETVFDVEPSSTTSTPTSLLYVATVLQEPELNLTPASSPARHTYGTINSQPEEGEEESGLRGFARELDSAQFQEGLEMEGQSH
binding [2]: no binding

B3: TMEM63C-GFP and TMEM63C-FLAG co-expressed (two differently tagged copies of mouse TMEM63C) (protein, UniProt Q8CBX0 1-802)
chain: MSAFPDSMDQKFHNMTVNECFQSRSTVLQGQPFGGIPTVLVLNIILWVFVVLLYSFLRKAAWDYGRLALLIHNDSLTSLIYGEQSEKSSPSEVSLEAERRDRGFSSWFFNSLTMRDRDLINKCGDDARIYITFQYHLIIFVLILCIPSLGIILPVNYIGTVLDWNSHFGRTTIVNVSTESKFLWLHSLFAFLYFLINLAFMGHHCLGFVPKKSLHFTRTLMITYVPTEIQDPEIISKHFHEAYPGCVVTRVHFCYDVRNLIDLDDQRRHAMRGRLYYTAKAKKTGKVMIKTHPCSRLCFCKCWTCFKEVDAEQYYSELEEQLTDEFNAELNRVQLKRLDLIFVTFQDARTVRRIYDDYKYIHCGRHPKQSSVTTIVKNYHWRVAHAPHPKDIIWKHLSIRRFSWWTRFIAINTFLFFLFFFLTTPAIIINTIDIYNVTRPIEKLQSPIVTQFFPSVLLWAFTVTMPLLVYLSAFLEAHWTRSSQNLIIVHKCYIFLVFMVVILPSMGLTSLHVFLRWLFDIYYLEHATIRFQCVFLPDNGAFFINYVITAALLGTGMELMRLGSLCTYCTRLFLSKSEPERVHIRKNQATDFQFGREYAWMLNVFSVVMAYSITCPIIVPFGLLYLCMKHITDRYNMYYSYAPTKLNAQIHMAAVYQAIFAPLLGLFWMLFFSILRVGSLHSITLFSMSSLIISVVIAFSGVFLGKLRIAQRYEQPEEETETVFDVEPSSTTSTPTSLLYVATVLQEPELNLTPASSPARHTYGTINSQPEEGEEESGLRGFARELDSAQFQEGLEMEGQSH
binding [3]: no binding
binding [4]: no binding

B4: TMEM63C-FLAG (expressed alone, cross-linked in the membrane) (protein, UniProt Q8CBX0 1-802)
chain: MSAFPDSMDQKFHNMTVNECFQSRSTVLQGQPFGGIPTVLVLNIILWVFVVLLYSFLRKAAWDYGRLALLIHNDSLTSLIYGEQSEKSSPSEVSLEAERRDRGFSSWFFNSLTMRDRDLINKCGDDARIYITFQYHLIIFVLILCIPSLGIILPVNYIGTVLDWNSHFGRTTIVNVSTESKFLWLHSLFAFLYFLINLAFMGHHCLGFVPKKSLHFTRTLMITYVPTEIQDPEIISKHFHEAYPGCVVTRVHFCYDVRNLIDLDDQRRHAMRGRLYYTAKAKKTGKVMIKTHPCSRLCFCKCWTCFKEVDAEQYYSELEEQLTDEFNAELNRVQLKRLDLIFVTFQDARTVRRIYDDYKYIHCGRHPKQSSVTTIVKNYHWRVAHAPHPKDIIWKHLSIRRFSWWTRFIAINTFLFFLFFFLTTPAIIINTIDIYNVTRPIEKLQSPIVTQFFPSVLLWAFTVTMPLLVYLSAFLEAHWTRSSQNLIIVHKCYIFLVFMVVILPSMGLTSLHVFLRWLFDIYYLEHATIRFQCVFLPDNGAFFINYVITAALLGTGMELMRLGSLCTYCTRLFLSKSEPERVHIRKNQATDFQFGREYAWMLNVFSVVMAYSITCPIIVPFGLLYLCMKHITDRYNMYYSYAPTKLNAQIHMAAVYQAIFAPLLGLFWMLFFSILRVGSLHSITLFSMSSLIISVVIAFSGVFLGKLRIAQRYEQPEEETETVFDVEPSSTTSTPTSLLYVATVLQEPELNLTPASSPARHTYGTINSQPEEGEEESGLRGFARELDSAQFQEGLEMEGQSH
binding [5]: no binding
